# Hit rate of the full screen: of about 150,000 compounds, about 540 (0.36%) showed an effect of 50% or more. This is one part of the list.
# Test system: Plasmodium falciparum
# Test: Primary screen in NF54 nanoGlo assay, in single point, at 2uM, 72h; a lower Z score goes with more inhibition
# Type: functional, Erythrocyte
# Conditions: timepoint 72 hour
SMILES,% Inhibition,Z score
c1ccc2c(c1)CCO[C@H]2C1NCCN1,-5%,0.64
Cc1noc(C)c1Cn1c(NCCO)nc2ccccc21,-12%,2.29
CC1CCC(C(C)C)C(NC(=O)CCNS(C)(=O)=O)C1 (stereo not drawn),12%,-1.8
CCCc1ccc(C(=O)N2CCC(n3nccn3)CC2)cc1,-9%,0.99
Cc1ccc(C)c2[nH]c(=O)c(CCNC(=O)C(C)(C)Oc3ccc(Cl)cc3)cc12,-9%,1.6
CC(=O)N1CCO[C@@H](Cn2ccnc2-c2nccn2C)C1,-9%,1.02
CC[C@@H](C(=O)N(CCc1ccccc1)C1CCN(C)CC1)n1cccn1,-20%,2.36
c1ccc(-n2ncc3c(N4CCC[C@H](N5CCCC5)C4)ncnc32)cc1,2%,-0.26
Cc1ccc(NS(=O)(=O)CCCN2C(=O)c3ccccc3C2=O)c(Cl)c1,-39%,4.56
CN1CCc2c(c(N3CCN(C(c4ccccc4)c4ccccc4)CC3)nc3[nH]nc(N)c23)C1,-24%,2.87
O=C(CCn1c(=S)oc2ccccc21)N1CCc2ccccc2C1,11%,-1.27
O=C(Nc1ccc(Cl)cn1)c1cc2c(s1)CCCC2,-9%,0.92
C[C@@H](CC(=O)NS(=O)(=O)c1cnn(C)c1)c1ccccc1F,6%,-0.89
CCCCNC(=O)[C@H](CC(N)=O)NS(=O)(=O)c1cccc(F)c1,5%,-0.68
C[C@H](Oc1ccccc1)C(=O)Nc1c2c(nn1-c1ccccc1)CS(=O)(=O)C2,-12%,2.08
CC(C)Cc1noc(CNC(=O)Cn2ncc(N(C)C)cc2=O)n1,14%,-1.59
CCOc1cncc(CN(C)[C@H]2CC[C@H](O)CC2)c1,-10%,1.94
CC1CCN(C(=O)Cc2nnc(-c3ccccc3)o2)CC1,-7%,0.92
COc1cccc(NC(=O)CN2CN(c3ccccc3)C3(CCN(C(=O)C[C@@H](C)CC(C)(C)C)CC3)C2=O)c1,23%,-4.35
CN1CCn2nc(NC(=O)NCc3cc(C(F)F)on3)cc2C1,-8%,0.9
CN(CCCn1ccnc1)Cc1nc2ccccc2o1,2%,-0.17

SMILES,% Inhibition,Z score
CCN1C(=O)[C@@H]2CC3(CCN(C(=O)c4ncoc4-c4cccc(C)c4)CC3)CN2C1=O,2%,-0.25
O=C1N(Cc2cccc(F)c2F)CCC[C@@]1(O)CN1CCN(CC2CCC2)CC1,-8%,0.92
CC(=O)NC1(c2noc(-c3cnccn3)n2)CCCCC1,-9%,1.04
COc1cccc2c(=O)n([C@H]3C[C@H]4CC[C@@H]3C4)cnc12,-8%,1.05
Cc1ccc(-n2ccnc2)c(C(=O)N2CC[C@H](C(=O)O)C2)c1,4%,-0.48
O=C(c1cccc(S(=O)(=O)N2CCCC2)c1)N1CCC[C@H]1c1nnc2ccccn12,-3%,0.48
Cc1c(CN(C)[C@H]2CCN(C)C2)oc2ccccc12,-13%,1.22
CCOc1ccccc1NC(=O)N1CCN(c2ccc(-c3noc(C4CCC4)n3)cc2)CC1,0%,0.08
O=C(Nc1ccccc1)c1ccc(N2C3CCC2COC3)nn1,-5%,0.97
CC(=O)c1cnc(N2CCC3(CC2)COC(=O)O3)nc1C,-9%,0.84
c1ccc(-c2ncsc2CNc2ncnc3c2CCNCC3)cc1,2%,-0.41
CC(C)CCN1C(=O)CC[C@@H]2CN(C(=O)c3ncoc3C3CC3)CC[C@@H]21,-3%,0.43
CC1CC(C(=O)NCc2nnc(C3CCOC3)[nH]2)CC(C)(C)C1 (stereo not drawn),-8%,1.54
CCOC(=O)c1ccccc1N(CC)C(=O)c1cnc(C)cn1,1%,-0.09
CC(=O)NCC(=O)NCc1nc(C(=O)NCc2ccc(F)cc2)no1,-14%,1.49
CCCOc1ccc(-c2cccc(C(=O)N3CCCO[C@@H](C)C3)c2)cc1CO,0%,-0.02
CCN1CCN(C(=O)CN2CCCc3nc(-c4ccccc4)ncc3C2=O)CC1,-6%,0.87
Cn1c(-c2ccc(Cl)cc2)nnc1N1CCC[C@H](CCO)C1,-10%,1.29
Cc1cc(C(F)(F)F)nc(N2C[C@H](F)C[C@H]2C(N)=O)n1,13%,-1.53
Cc1cccc(C(=O)N2CCC[C@H](CN3CCC(C)CC3)CC2)c1,1%,-0.23
C[C@H]1OCC[C@H]1n1nnnc1N1CCC2(CCCCC2)C1,-2%,0.31

SMILES,% Inhibition,Z score
CC(C)C1OCCC1CNc1ccccc1S(C)(=O)=O (stereo not drawn),3%,-0.5
O=C1CC2(CN(C(=O)C(F)(F)c3ccccc3F)C2)NCCN1,6%,-0.75
CCOc1nc2ccccc2nc1C(=O)N1CCN(c2cccc(Cl)c2)CC1,-11%,1.6
c1coc(CCCN2CCN(c3ccnc4nncn34)CC2)c1,-7%,1.3
Cc1noc([C@@]23CN(C(=O)CCO)C[C@@H]2CCN(C(=O)c2cccnc2)C3)n1,-1%,0.09
Cn1ncnc1CCN1CC(c2ccccc2)(c2ccccc2)CCC1=O,1%,-0.16
C[C@H](Oc1cc2c(nn1)CCCC2)C1CC1,-5%,0.58
COCC1(C(=O)N2CCN(c3cncc4ccccc34)CC2)CCC1,44%,-6.02
CC(=O)N1CCc2cc(Br)c(S(=O)(=O)N3CC(=O)N(CCc4ccccc4)C(=O)C3)cc21,-4%,0.43
CCO[C@H]1CN(C(=O)c2ncccc2O)C[C@@H]1O,-6%,0.6
CC(C)C[C@H](NC(=O)c1ccncc1F)C(=O)Nc1cc[nH]n1,-14%,1.98
COc1ccc(C(=O)N2CC(=O)N3C[C@@H](OC)C[C@H]3C2)cc1F,-7%,1
CCc1nc(N2CCCN(S(=O)(=O)N3CCOCC3)CC2)ncc1C,-5%,0.92
COc1ccc(NC(=O)[C@@H](c2ccc(C)cc2)N(Cc2ccco2)C(=O)c2cnccn2)cc1,0%,-0.01
CC1(C)CC2CC(C)(CN2c2nc(-c3ccccc3)nc3ccccc23)C1 (stereo not drawn),4%,-0.53
O=C1COc2c(cccc2NC(=O)c2ccccc2)N1,-10%,1.28
Cc1cc(C#N)cc(N(C2CC2)S(=O)(=O)c2ccc(C#N)nc2)n1,-3%,0.44
CC(C)c1ncc(CN(C)S(=O)(=O)N(C)C2CCCCC2)cn1,-9%,1.04
COCCNc1ncccc1-c1noc([C@@H]2CCCN2Cc2ccccc2OC)n1,30%,-3.38
CC1CC2CCCCC2N1C(=O)C1CCNC(=O)C1 (stereo not drawn),31%,-3.45
CC(C)(Nc1ccc2c(c1)OCCO2)c1nnnn1-c1ccc(Cl)cc1,-11%,1.52

SMILES,% Inhibition,Z score
CCN1CCN(c2ccc(S(=O)(=O)N3CCOCC3)cc2N)CC1,1%,-0.24
CCC1=C(c2ccc(C)cc2)S(=O)(=O)N=C1N1CCC(C(=O)NC2CCC(C)CC2)CC1 (stereo not drawn),-12%,1.49
CCCc1ncncc1C(=O)N(C)Cc1c(C)nn(C(C)C)c1C,-1%,0.13
Cc1nc(CN2CCC3(CC2)[C@H](O)C[C@@H]3OCCO)sc1C,1%,-0.25
CC[C@H]1c2cccn2CCN1C(=O)c1cc(C#N)c[nH]1,5%,-0.82
Cc1cc(Cl)c2ccccc2c1NC(=O)NCc1nnn(C(C)(C)C)n1,4%,-0.84
CCCc1cc(C(=O)N2C[C@@H]3OC(=O)N(CCCN4CCOCC4)[C@@H]3C2)[nH]n1,3%,-0.61
CC(C)ONC(=O)CCc1cccc(O)c1,-11%,1.21
CC(C)c1nc(CCNC(=O)CCCc2cn[nH]c2)no1,0%,0
Cc1cc(C)c(-n2cccn2)c(CN2CCN3CCC[C@H]3C2)c1,-4%,0.51
COCCN(CC(=O)N[C@H]1CCCCNC1=O)C(=O)OC(C)(C)C,4%,-0.65
Cc1cnc2cc(C(=O)N[C@@H](C)C3CCOCC3)ccn12,-10%,1.39
CC1CC(C(N)=O)c2ccccc2N1Cc1cc(F)cc2c1OCOC2 (stereo not drawn),-5%,0.86
CC(=O)Nc1nc2ccc(NC(=O)c3cc(-c4ccccc4)[nH]n3)cc2s1,-2%,0.37
CCOC(=O)N1CCN([C@H]2CCCN(C(=O)C(=O)CC(C)C)C2)CC1,-10%,1.31
NC(=O)c1ccc(/C=C/C2CCCCC2)nc1,-15%,2.78
COC(=O)N1CCC2(O)CCCCC2[C@@H]1c1ccc(OC)cc1OC (stereo partly drawn),-1%,0.13
CS(=O)(=O)N1C[C@H]2CN(Cc3cc(C(F)(F)F)ccc3Cl)CC[C@@]2(CO)C1,1%,-0.21
Cc1c(CN(C)C(=O)C[C@@H]2C(=O)Nc3c(F)cccc32)cnn1C,-1%,0.22
c1cncc(CNc2ccc3c[nH]nc3c2)c1,-2%,0.29
CCCc1cc(C(=O)NCc2cccnc2N2CCN(C(C)=O)CC2)no1,-3%,0.31

# Source: ChEMBL document CHEMBL4888484, “Replenishing the malaria drug discovery pipeline: Screening and hit evaluation of the MMV Hit Generation Library 1 (HGL1) against asexual blood stage Plasmodium falciparum ,using a nano luciferase reporter read-out” (2022)
